# Measured values published in ChEMBL document CHEMBL1157539, “Thousands of chemical starting points for antimalarial lead identification” (Nature, 2010).
# Over roughly 13,000 compounds, “IFI” has its median near 4; the highest 2% begin near 17. The list shows a part of the results.
# Experiment: GSK_TCMDC: Inhibition Frequency Index (IFI). The number of non-kinase HTS assays where a compound showed > 50 % inhibition, expressed as a percentage of the number of such assays in which the compound was tested (-0 is zero)
# Type: functional
row,Compound,IFI
1,CCCCN(CCCC)CCCCNc1c2ccc(Cl)cc2nc2ccc(OC)cc12,6.87%
2,COc1ccc(-n2nc(C)c3c2NC(=O)CC3c2ccccc2OCc2ccc(F)cc2)cc1 (stereo not given),10.3%
3,Cc1cccc(Nc2nc(C)cc(N3CCCN(CC4CCCCC4)CC3)n2)c1,3.66%
4,Cc1ccc(NC(=O)c2ccc(N3CCN(c4ccncc4)CC3)cn2)cc1F,11.1%
5,O=C(/C=C/c1ccc(Cl)c(Cl)c1)NCCCCCN1CCC(NC(=O)Nc2ccc(Cl)cc2F)CC1,13%
6,CC(=O)c1nccc(C)c1N,0%
7,O=C(Nc1cc(Cl)ccc1O)c1cnn2c(C(F)(F)F)cc(-c3cccs3)nc12,0%
8,Cc1ccc(NC(=O)c2ccnc(N3CCN(c4ccncc4)CC3)c2)cc1F,5.71%
9,COc1ccc2nc3cc(Cl)ccc3c(Nc3ccc(C(=O)O)cc3)c2c1,-0%
10,Cc1cccc2nc(-c3cccc(-c4cccc(C(=O)NCCN5CCCC5)c4)c3)[nH]c12,5.41%
11,COc1cc2c(cc1OC)-c1cc(=Nc3c(C)cc(C)cc3C)n(C)c(=O)n1CC2,5%
12,Cn1c(=O)c(-c2c(Cl)cccc2Cl)cc2cnc(Nc3ccc(N4CCOCC4)cc3)nc21,6.25%
13,FC(F)(F)c1ccc2[nH]c(-c3ccc(-c4ccc(CN5CCN(c6ccncc6)CC5)cc4)cc3)nc2c1,13.5%
14,COc1ccc(CNc2ncnc3c2[nH]c2ccc(F)cc23)cc1,17.2%
15,COc1ccccc1N=C1SC(=Cc2cn(CC(=O)N3CCCc4ccccc43)c3ccccc23)C(=O)N1C1CCCCC1,2.17%
16,O=C(Nc1ccc([N+](=O)[O-])cc1Br)c1cc2ccccc2nc1Cl,-0%
17,Cc1cccc2nc(-c3ccc(-c4cccc(CN5CCN(CCO)CC5)c4)cc3)[nH]c12,3.96%
18,c1ccc(CCNCc2ccc(-c3cccc(CNc4ccc5ncccc5c4)c3)cc2)cc1,9.09%
19,CC(C)CNC(=O)c1cncc(-c2ccc(CNCCCc3ccccc3)cc2)c1,4.84%
20,O=C(CCNc1ccnc(NCCc2ccc(F)cc2)n1)Nc1ccccc1,4.55%

row,Compound,IFI
1,O=c1cc(NCCCNCc2cc(Cl)cc(Cl)c2OCc2ccccc2)[nH]c2ccccc12,5.15%
2,CC(=O)Nc1ccc(CN2CCC(CNC(=O)c3cc(-c4cccc(C(F)(F)F)c4)cs3)C2)cc1 (stereo not given),8.16%
3,Cc1nc(C)c(-c2ccc(Oc3cc(Cl)cc(Cl)c3)cc2)c(O)c1Br,2.31%
4,Cc1cc(N/N=C/c2ccccc2[N+](=O)[O-])c2cccc(C)c2n1,0.77%
5,Fc1ccccc1C=NN=c1cc[nH]c2ccc(C(F)(F)F)cc12,0.75%
6,CN(C)CCNc1cc(-c2cccnc2)nc(-c2ccncc2)n1,0%
7,O=C(NC1CCN(c2ccnc(Nc3ccc(F)cc3)n2)C1)c1cc2ccccc2s1 (stereo not given),3.08%
8,CN(C)Cc1ccc(-c2ccc(NC(=O)c3ccc4c(=O)n(Cc5ccccc5)cnc4c3)cc2)cc1,7.84%
9,CCN1CCN(CCCNc2ccnc3cc(Cl)ccc23)CC1,-0%
10,O=C(CSc1nc(-c2ccccc2Cl)ns1)Nc1cccc(Cl)c1,7.14%
11,CCOc1ccc(-c2nonc2NC(=O)c2ccc(F)cc2)cc1OCC,-0%
12,Cc1ccc(C2CCN(CCCCNC(=O)c3ccc(-c4ccc(C#N)cc4)cc3)CC2)c(O)c1,7.48%
13,NC(=O)c1ccc(-c2ccc3ccnc(N)c3c2)cc1,5.62%
14,COc1ccccc1NS(=O)(=O)c1cc(C(=O)Nc2ccc(N3CCOCC3)c(S(=O)(=O)Nc3ccccc3Cl)c2)ccc1Cl,1.43%
15,O=C(Cc1cccc(O)c1)Nc1ccc(-c2cccc(-c3nc4cc(C(F)(F)F)ccc4[nH]3)c2)cc1,8.93%
16,Clc1ccc(-c2cc(-c3csc(NCCN4CCOCC4)n3)on2)c(Cl)c1,10.8%
17,Cc1ccc2c(c1[N+](=O)[O-])N=NCC2Oc1ccccc1 (stereo not given),0.74%
18,COc1ccc2c(O)c(C3CCC(c4ccc(Cl)cc4)CC3)c(C)nc2c1 (stereo not given),2.24%
19,CC(C)CNCc1cccc(-c2cccc(CNCCCN3CCN(C)CC3)c2)c1,1.46%
20,O=c1cc(NCCCNCc2ccc(Cl)c(Cl)c2)[nH]c2ccc(Oc3ccccc3)cc12,2.78%

row,Compound,IFI
1,COc1ccc(C(F)(F)F)cc1N1CCN(CCCCNC(=O)c2ccc(NC(=O)c3ccc(Cl)cc3)cc2)CC1,1.8%
2,CCOC(=O)c1c(CSc2ccccc2)oc2cc(CN(C)C)c(O)c(Cl)c12,1.55%
3,CN(Cc1ccccc1)C1CCCN(c2cc(NC(=O)c3cccs3)ccn2)C1 (stereo not given),2.7%
4,Cc1ccc(CNC(=N)NC(=O)c2nc(Cl)c(NCc3ccc(Cl)cc3)nc2N)c(C)c1,5.56%
5,COc1cccc2c(Oc3ccccc3C)ccnc12,2.99%
6,CCOc1ccc2c(=NN=Cc3cccc(Cl)c3)cc(C)[nH]c2c1,2.03%
7,Cc1cnc2ccc(NS(=O)(=O)c3sc4ccc(Cl)cc4c3C)cc2c1N1CCNCC1,1.4%
8,CN(C)CCNCc1cccc(-c2ccc3c(Nc4ccc(F)cc4Cl)ccnc3c2)c1,0.74%
9,CCOc1ccc(NC(=O)c2cn3nc(-c4ccc(OCC)cc4)cc3nc2C2CCNCC2)cc1,6.76%
10,O=C(Nc1ccccc1)N1CCOC(CCN2CCC(F)(F)CC2)(c2ccc(Cl)c(Cl)c2)C1 (stereo not given),5.76%
11,O=C(Nc1cccc(CN2CCCN(Cc3ccc4c(c3)OCO4)CC2)c1)c1ccc2ccccc2c1,4.76%
12,COCCNCc1nc(-c2ccc3c(Nc4ccc(F)c(O)c4)ccnc3c2)cs1,4.48%
13,CCCCc1cc(NC2CCN(C)CC2)nc(Nc2ccccc2)n1,5.56%
14,O=C(Cn1c(CCc2cccc(F)c2F)nc(=O)c2cccnc21)N(Cc1ccc(-c2ccc(C(F)(F)F)cc2)cc1)C1CCN(C2CCOCC2)CC1,15.7%
15,CCN(CC)CCNc1nc(C=Cc2ccc(Cl)cc2)nc2cc3ccccc3cc12,9.46%
16,CC(C)c1ccc(CN2CCC(NC(=O)c3ccc(-c4ccccc4F)s3)CC2)cc1,15.5%
17,C=C(C)Cn1cc(C2CCN(CCN3CCC(CNC(=O)c4ccc(-c5ccc(C#N)cc5)cc4)CC3)CC2)c2ccccc21,10.9%
18,O=C(NCC1CCC(C(=O)NCCN2CCCCC2)CC1)c1ccc(O)c(-c2ccc(Cl)c(Cl)c2)c1 (stereo not given),0.76%
19,CCOc1cc(C)ccc1NC1CCN(CCCCNC(=O)c2ccc(NC(=O)c3ccc(Cl)cc3)cc2)CC1,5.31%
20,CN1CCCN(Cc2ccc(-c3ccc(NC(=O)c4cccc(Cl)c4)cc3)cc2)CC1,8.91%
